Results as given in ChEMBL document CHEMBL1157539, “Thousands of chemical starting points for antimalarial lead identification” (Nature, 2010).
Over roughly 13,000 compounds, “IFI” has its median near 4; the highest 2% begin near 17. The list shows a part of the results.

Experiment: GSK_TCMDC: Inhibition Frequency Index (IFI). The number of non-kinase HTS assays where a compound showed > 50 % inhibition, expressed as a percentage of the number of such assays in which the compound was tested (-0 is zero)
Assay type: functional

| Compound | IFI [%] |
| --- | --- |
| CCOC(=O)c1ccc(NC(=O)Nc2ccc(-c3ccc(-c4nc5cccc(C)c5[nH]4)s3)cc2)cc1 | 2.02 |
| CCCCCCn1c2c(c(=N)c3c1CCC3)CCCC2 | 6.72 |
| O=C(NCCCc1ccccc1)c1csc(C2CCCN(C(=O)c3ccc(O)c(-c4cccc5ccccc45)c3)C2)n1 (centres undefined) | 2.24 |
| COc1ccc2nccc([C@@H](O)CN3CCC(NC(=O)C(c4cc5ccccc5s4)N4CCN(c5ccccc5OC)CC4)CC3)c2c1 (some centres undefined) | 2.08 |
| CC(=O)Nc1cccc(C(=O)Nc2ccc(-c3ccc(-c4nc5cccc(C)c5[nH]4)s3)cc2)c1 | 7.34 |
| CCN(CC)CCNc1nccc(N(C)c2ccc(NC(=O)Nc3cc(C(F)(F)F)ccc3F)cc2)n1 | 9.56 |
| CN(C)CCOc1cc(NC(=O)Nc2ccc(-c3ccccc3)cc2)ccc1I | 7.58 |
| COc1ccc2nccc([C@@H](O)CN3CCC(NC(=O)C(c4cc5ccccc5o4)N4CCN(c5ccccc5)CC4)CC3)c2c1 (some centres undefined) | 3.47 |
| CCOc1cc(Cc2cnc(N)nc2N)cc(OCC)c1-n1cccc1 | 0.72 |
| COc1cc(/C=C/C(=O)NC2CCC(N3CCC(c4ccccc4C)CC3)CC2)cc(OC)c1 (centres undefined) | 10 |
| Cc1ccc2[nH]c(-c3cc(-c4ccc(CO)cc4)cnc3N)nc2c1 | 5.51 |
| CCCc1cc(OC)c(CC2c3cccc(O)c3CCN2C)cc1OC (centres undefined) | 3.82 |
| COc1ccc(CCNCCCCCNCCCc2ccc(Cl)cc2)cc1OC | 2.8 |
| COc1cc(F)c2ncc(Cl)c([C@H](O)CN3CCC(NCc4ccc5c(n4)NC(=O)CO5)CC3)c2c1 | 1.77 |
| CNCCNCc1cccc(-c2ccc(-c3nc4cc(C(F)(F)F)ccc4[nH]3)cc2)c1 | 7 |
| O=C(Nc1ccc(Cl)c(Cl)c1)C1CCC(=O)N1[C@@H](Cc1ccccc1)C(=O)NCCc1ccc(Cl)cc1 (some centres undefined) | 1.47 |
| Cc1cccc2nc(-c3cccc(-c4ccc(NC(=O)c5ccc(=O)[nH]n5)cc4)c3)[nH]c12 | 1.8 |
| CC(Nc1nncc(-c2cccc(F)c2)n1)c1ccc(F)cc1 (centres undefined) | 4.76 |
| CCNc1cc(C(=O)N[C@@H](Cc2ccccc2)[C@H](O)CNC(C)(C)CCCC(C)C)cc(N2CCCCS2(=O)=O)c1 | 1.46 |
| CCn1c(-c2nonc2N)nc2c(-c3ccccc3)ncc(OCCCCNCCc3ncc[nH]3)c21 | 11.3 |
| CN1CCC[C@H]1COc1ccc(CN2CC[C@H](NC(=O)c3ccc(Cl)c(Cl)c3)C2)c2ccccc12 | 9.68 |
| NC1CCN(Cc2ccc(-c3ccc(-c4nc5ccccc5[nH]4)s3)cc2)C1 (centres undefined) | 4.23 |
| CN1CCCC(CN2CCN(Cc3ccc(-c4cccc(-c5nc6ccccc6[nH]5)c4)cc3)CC2)C1 (centres undefined) | 8.33 |
| N#Cc1cccc(C(=O)NC2CCN(CCCCCNC(=O)/C=C/c3ccc(Cl)c(Cl)c3)CC2)c1 | 3.94 |
